# Experimental data taken from PubChem BioAssay (Tox21).
# Inconclusive results, whose numbers are uncertain, are shown with a selection of clear calls. Entries that show only a call come without a potency. For some assays here: A potency beside an inconclusive call is a rough fit, not a confirmed value. The source made the active and inactive calls. Unless noted, calls follow the shape of the dose curve; as a rule, active = well fitted curve in the direction sought with a large enough effect in the repeat runs; inconclusive = weak or mixed curves; inactive = no such curve, though single readings can be large; an effect the other way counts as inactive or inconclusive.
# Key:
# [1] = A CellTox Green Cytotoxicity Assay to monitor cytotoxicity in HEK293 cells - 8 hour (AID 1224884); also: nearly all actives have a fitted effect of over 35% in size; also: potency is read from the fitted curve at half-maximal effect
# Outline: (§1)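 Seeding of HEK293 cells together with cytotoxicity dye preceded a 5 h incubation at 37 C/5% CO2. Test compounds in DMSO were then added and fluorescence monitored across 40 h.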
# [2] = A CellTox Green Cytotoxicity Assay to monitor cytotoxicity in HEK293 cells - 16 hour (AID 1224888); also: nearly all actives have a fitted effect of over 35% in size; also: potency is read from the fitted curve at half-maximal effect
# Outline: as §1
# [3] = qHTS assay to identify small molecule antagonists of the sonic hedgehog signaling (Shh) pathway (AID 1259369; calls by dose curve; also: nearly all actives have a fitted effect of over 45% in size)
# Outline: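 Conditioned medium drives Shh signalling in 3T3Gli1-Luc cells; compounds in DMSO co-applied, 24hr at 37 C, then luciferase luminescence.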
# [4] = target: Estrogen receptor beta (Homo sapiens) (UniProt Q92731); experiment: qHTS assay to identify small molecule agonists of the estrogen receptor beta (ER-beta) signaling pathway (AID 1259377; active = well fitted activation curve with a large enough effect in the signal ratio in the repeat runs, not every such curve was filed as active; inconclusive = weak or mixed curves, or effect the other way; the % refers to the signal ratio); conditions: ER-beta-UAS-bla HEK293T, beta-lactamase FRET ratio, 16 h; activation: at 92.4 µM (top of the series) unless noted
# Sequence of UniProt Q92731 (Q92731 whole entry, looked up): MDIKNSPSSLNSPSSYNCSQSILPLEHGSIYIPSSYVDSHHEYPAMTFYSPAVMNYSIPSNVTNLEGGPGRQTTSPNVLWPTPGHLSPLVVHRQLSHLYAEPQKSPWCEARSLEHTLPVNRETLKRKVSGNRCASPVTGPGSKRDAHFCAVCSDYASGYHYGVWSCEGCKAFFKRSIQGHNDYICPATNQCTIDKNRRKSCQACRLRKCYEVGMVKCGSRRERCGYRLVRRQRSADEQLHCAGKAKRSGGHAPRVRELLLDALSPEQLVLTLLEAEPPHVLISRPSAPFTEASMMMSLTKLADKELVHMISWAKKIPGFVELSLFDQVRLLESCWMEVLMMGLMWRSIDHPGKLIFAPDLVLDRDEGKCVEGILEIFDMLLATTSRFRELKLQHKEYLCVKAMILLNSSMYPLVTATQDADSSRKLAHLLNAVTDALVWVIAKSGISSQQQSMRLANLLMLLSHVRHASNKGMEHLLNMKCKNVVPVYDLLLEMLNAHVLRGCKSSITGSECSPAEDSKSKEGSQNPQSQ
# Outline: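 Read-out: beta-lactamase FRET fluorescence. Cell line: ER-beta-UAS-bla HEK293T in 2% charcoal-stripped FBS. Exposure: 16 hr at 37C. Substrate step: 2 h at room temperature.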
# [5] = target: Progesterone receptor (Homo sapiens) (UniProt P06401); experiment: qHTS assay to identify small molecule antagonists of the progesterone receptor (PR) signaling pathway (AID 1346795; active = well fitted inhibition curve with a large enough effect in the signal ratio in the repeat runs, not every such curve was filed as active; inconclusive = weak or mixed curves; the % refers to the signal ratio; also: potency is read from the fitted curve at half-maximal effect); conditions: PR-UAS-bla HEK293T, beta-lactamase FRET ratio, 16 h; activity change, negative = inhibition: at 92.4 µM (top of the series) unless noted
# Sequence of UniProt P06401 (P06401 whole entry, looked up): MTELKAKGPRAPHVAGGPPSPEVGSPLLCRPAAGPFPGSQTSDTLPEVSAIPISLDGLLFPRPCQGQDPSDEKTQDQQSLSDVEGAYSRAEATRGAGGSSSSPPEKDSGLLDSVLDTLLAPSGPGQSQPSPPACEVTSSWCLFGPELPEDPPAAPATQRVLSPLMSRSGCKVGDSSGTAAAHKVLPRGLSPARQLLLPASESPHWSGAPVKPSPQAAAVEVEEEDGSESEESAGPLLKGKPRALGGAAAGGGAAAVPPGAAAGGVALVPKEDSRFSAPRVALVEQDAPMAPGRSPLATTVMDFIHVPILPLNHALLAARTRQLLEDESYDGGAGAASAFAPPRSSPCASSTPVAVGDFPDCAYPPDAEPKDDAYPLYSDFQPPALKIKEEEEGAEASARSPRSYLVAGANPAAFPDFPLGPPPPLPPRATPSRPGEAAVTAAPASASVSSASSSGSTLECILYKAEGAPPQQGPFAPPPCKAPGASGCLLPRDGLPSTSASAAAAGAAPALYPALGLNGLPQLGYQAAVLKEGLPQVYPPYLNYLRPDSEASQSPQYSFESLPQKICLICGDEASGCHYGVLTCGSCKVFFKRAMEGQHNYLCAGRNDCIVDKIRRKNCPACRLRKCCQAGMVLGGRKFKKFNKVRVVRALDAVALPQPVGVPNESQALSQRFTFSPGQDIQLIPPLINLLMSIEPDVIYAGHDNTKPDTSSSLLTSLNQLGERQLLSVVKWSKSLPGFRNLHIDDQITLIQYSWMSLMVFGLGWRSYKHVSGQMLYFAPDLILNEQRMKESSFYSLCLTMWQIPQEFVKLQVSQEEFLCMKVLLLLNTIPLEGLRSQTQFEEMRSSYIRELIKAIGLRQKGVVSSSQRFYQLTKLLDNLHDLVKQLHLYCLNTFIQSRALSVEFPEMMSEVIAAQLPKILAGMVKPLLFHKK
# Outline: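 In HEK293T cells bearing the PR-UAS-bla reporter, compound effects on promegestone-driven (1 nM) beta-lactamase expression are assessed after 16 hr using a fluorescent FRET substrate incubated 2 hr at room temperature.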
# [6] = target: Peroxisome proliferator-activated receptor delta (Homo sapiens) (UniProt Q03181); experiment: qHTS assay to identify small molecule antagonists of the peroxisome proliferator-activated receptor delta (PPARd) signaling pathway (AID 743215; active = well fitted inhibition curve with a large enough effect in the signal ratio in the repeat runs, not every such curve was filed as active; inconclusive = weak or mixed curves, or effect the other way; inactive = no such curve, though single readings can be large or run the other way; the % refers to the signal ratio;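 also: cells stimulated with agonist L165041 at 300 nM final during compound exposure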); conditions: HEK293H PPARd-UAS-bla, beta-lactamase FRET ratio, antagonist, 17 h; ratio activity, negative = inhibition: at 62 µM (top of the series) unless noted
# Sequence of UniProt Q03181 (Q03181 whole entry, looked up): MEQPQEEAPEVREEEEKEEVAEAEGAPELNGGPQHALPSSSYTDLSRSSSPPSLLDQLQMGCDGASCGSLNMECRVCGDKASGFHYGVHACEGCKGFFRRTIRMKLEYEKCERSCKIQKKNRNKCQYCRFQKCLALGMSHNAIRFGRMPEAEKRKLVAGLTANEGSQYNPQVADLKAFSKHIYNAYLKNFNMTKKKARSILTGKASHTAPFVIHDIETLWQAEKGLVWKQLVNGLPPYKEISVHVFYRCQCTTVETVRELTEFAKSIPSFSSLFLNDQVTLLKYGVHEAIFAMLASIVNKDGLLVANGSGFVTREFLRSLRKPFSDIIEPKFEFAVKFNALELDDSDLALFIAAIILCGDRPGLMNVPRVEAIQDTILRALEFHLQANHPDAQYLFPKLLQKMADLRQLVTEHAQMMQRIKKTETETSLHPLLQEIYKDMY
# Outline: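 With L165041 present at 300 nM final, compounds were incubated 17 h at 37 C on PPARd UAS-bla HEK293H cells. A FRET-based beta-lactamase substrate was then applied for 2 h at room temperature and fluorescence intensity recorded.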
# [7] = qHTS assay to identify small molecule agonists of the farnesoid-X-receptor (FXR) signaling pathway - cell viability counter screen (AID 743218); conditions: FXR-bla HEK293T viability, CellTiter-Glo luminescence, 16 h; also: nearly all actives have a fitted effect of over 45% in size
# Outline: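 After 16 h at 37 C with test compounds, FXR-bla HEK 293T cells were given LiveBLAzer B/G substrate for 2 h at RT and then CellTiter-Glo; luminescence was taken after 30 min.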
# [8] = qHTS RealTime-Glo MT Cell Viability Assay in HEK293 cells - 16 hour (AID 1224872); also: nearly all actives have a fitted effect of over 50% in size; also: potency is read from the fitted curve at half-maximal effect; as to activity change, negative = cytotoxicity: top concentration of the series differs between compounds
# Outline: (§2)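 Cells + reagent dispensed (600 cells/well, HEK293) → 5 h at 37 C/5% CO2 → 23 nL compound in DMSO pinned → 40 h at 37 C → luminescence read at 0, 8, 16, 24, 32, 40 h.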
# [9] = target: Thyrotropin receptor (Homo sapiens) (UniProt P16473); experiment: qHTS assay to identify small molecule antagonists of the thyroid stimulating hormone receptor (TSHR) signaling pathway (AID 1259385; calls by dose curve; also: nearly all actives have a fitted effect of over 20% in size; also: potency is read from the fitted curve at half-maximal effect); conditions: TSHR-HEK293 cAMP HTRF, TSH-stimulated antagonist mode; activity change, negative = inhibition: at 92.4 µM (top of the series) unless noted
# Sequence of UniProt P16473 (P16473 whole entry, looked up): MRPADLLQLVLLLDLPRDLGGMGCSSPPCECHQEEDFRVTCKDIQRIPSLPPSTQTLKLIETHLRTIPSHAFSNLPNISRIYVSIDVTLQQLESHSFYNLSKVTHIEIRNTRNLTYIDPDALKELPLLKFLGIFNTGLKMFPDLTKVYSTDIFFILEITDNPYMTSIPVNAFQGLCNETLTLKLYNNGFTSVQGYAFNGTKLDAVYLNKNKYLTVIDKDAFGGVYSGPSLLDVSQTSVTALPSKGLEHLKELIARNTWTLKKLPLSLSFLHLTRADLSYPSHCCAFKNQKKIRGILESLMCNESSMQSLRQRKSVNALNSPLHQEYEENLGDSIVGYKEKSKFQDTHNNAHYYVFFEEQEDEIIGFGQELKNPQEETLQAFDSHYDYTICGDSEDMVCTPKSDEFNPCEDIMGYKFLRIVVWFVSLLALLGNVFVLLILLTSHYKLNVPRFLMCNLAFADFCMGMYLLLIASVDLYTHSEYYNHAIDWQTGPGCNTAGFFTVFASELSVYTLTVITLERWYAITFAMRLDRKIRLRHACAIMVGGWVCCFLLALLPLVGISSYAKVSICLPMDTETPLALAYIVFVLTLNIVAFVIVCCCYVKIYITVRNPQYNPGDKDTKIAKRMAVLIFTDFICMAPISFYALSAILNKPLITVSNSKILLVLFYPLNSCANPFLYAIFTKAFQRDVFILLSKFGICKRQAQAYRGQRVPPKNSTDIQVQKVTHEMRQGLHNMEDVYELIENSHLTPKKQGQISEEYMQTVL
# Outline: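 TSHR-HEK293 cells were plated and held 18 h at 37C/5% CO2, then given compound plus Ro20-1724 and stimulated with TSH at 1.5 ng/mL final. After 30 min at room temperature, cAMP was detected with cAMP-d2/anti-cAMP-cryptate (1 h) by fluorescence.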
# [10] = qHTS RealTime-Glo MT Cell Viability Assay in HEK293 cells - 32 hour (AID 1224868); also: nearly all actives have a fitted effect of over 50% in size; also: potency is read from the fitted curve at half-maximal effect
# Outline: as §2
# [11] = qHTS assay to identify small molecule agonists of the estrogen receptor beta (ER-beta) signaling pathway - cell viability counter screen (AID 1259380); also: nearly all actives have a fitted effect of over 30% in size; also: potency is read from the fitted curve at half-maximal effect
# Outline: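 Cells used were ER-beta-UAS-bla HEK293T in medium with 2% charcoal-stripped FBS. They were treated for 16 hr at 37C. Viability came from CellTiter-Glo luminescence.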
# [12] = target: Vitamin D3 receptor (Homo sapiens) (UniProt P11473); experiment: qHTS assay to identify small molecule agonists of the vitamin D receptor (VDR) signaling pathway (AID 743222; calls by dose curve); conditions: HEK293T VDR-UAS-bla, beta-lactamase FRET ratio, 16 h; activation: at 63.5 µM (top of the series) unless noted
# Sequence of UniProt P11473 (P11473 whole entry, looked up): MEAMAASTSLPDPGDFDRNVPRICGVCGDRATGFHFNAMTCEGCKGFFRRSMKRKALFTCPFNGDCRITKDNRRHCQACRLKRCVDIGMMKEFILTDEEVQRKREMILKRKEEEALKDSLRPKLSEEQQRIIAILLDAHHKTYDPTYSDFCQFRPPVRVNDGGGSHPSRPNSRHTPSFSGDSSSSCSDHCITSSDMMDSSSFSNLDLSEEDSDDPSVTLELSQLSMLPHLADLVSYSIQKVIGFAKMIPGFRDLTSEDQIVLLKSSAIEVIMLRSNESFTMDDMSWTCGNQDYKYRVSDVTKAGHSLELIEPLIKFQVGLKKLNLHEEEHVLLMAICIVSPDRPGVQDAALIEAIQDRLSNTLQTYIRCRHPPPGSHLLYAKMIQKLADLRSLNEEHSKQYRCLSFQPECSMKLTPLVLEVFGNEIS
# Outline: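 VDR-bla cells were seeded, left 4 h, treated with compounds in DMSO for 16 h, incubated 2 h at RT with B/G FRET substrate, and read for fluorescence.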
# [13] = qHTS assay to identify small molecule antagonists of the vitamin D receptor (VDR) signaling pathway - cell viability counter screen (AID 743225); conditions: VDR-bla HEK293T viability, CellTiter-Glo luminescence, 16 h; viability change, negative = cytotoxic: at 61 µM (top of the series) unless noted; also: nearly all actives have a fitted effect of over 50% in size; also: potency is read from the fitted curve at half-maximal effect
# Outline: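 Parallel cytotoxicity test: VDR-UAS-bla HEK 293T, 3 nM (final) 1-alpha,25-dihydroxyvitamin D3 with test compound, 16 h, 37C. Endpoint is CellTiter-Glo luminescence in the same wells.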
# [14] = qHTS RealTime-Glo MT Cell Viability Assay in HEK293 cells - 24 hour (AID 1224886); also: nearly all actives have a fitted effect of over 50% in size; also: potency is read from the fitted curve at half-maximal effect; as to activity change, negative = cytotoxicity: top concentration of the series differs between compounds
# Outline: as §2
# [15] = target: Estrogen receptor beta (Homo sapiens) (UniProt Q92731); experiment: qHTS assay to identify small molecule antagonists of the estrogen receptor beta (ER-beta) signaling pathway (AID 1259378; active = well fitted inhibition curve with a large enough effect in the signal ratio in the repeat runs, not every such curve was filed as active; inconclusive = weak or mixed curves, or effect the other way; inactive = no such curve, though single readings can be large or run the other way; the % refers to the signal ratio); conditions: ER-beta-UAS-bla HEK293T, beta-lactamase FRET ratio, 16 h; activity, negative = inhibition: at 92.4 µM (top of the series) unless noted
# Outline: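 ER-beta-UAS-bla HEK293T (GripTite) cells in 2% charcoal-stripped FBS medium were preincubated 6 hr at 37C, dosed with compound, then stimulated with 1 nM E2 (final) for 16 hr; beta-lactamase reporter read by B/G FRET fluorescence after 2 hr substrate loading.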
# [16] = target: Estrogen receptor (Homo sapiens) (UniProt P03372); experiment: qHTS assay to identify small molecule agonists of the estrogen receptor alpha (ER-alpha) signaling pathway using the BG1 cell line (AID 743079); conditions: BG1Luc4E2 cells, ERE-luciferase agonist, 22 h; activation: at 70.3 µM (top of the series) unless noted; also: nearly all actives have a fitted effect of over 20% in size; also: potency is read from the fitted curve at half-maximal effect
# Sequence of UniProt P03372 (P03372 whole entry, looked up): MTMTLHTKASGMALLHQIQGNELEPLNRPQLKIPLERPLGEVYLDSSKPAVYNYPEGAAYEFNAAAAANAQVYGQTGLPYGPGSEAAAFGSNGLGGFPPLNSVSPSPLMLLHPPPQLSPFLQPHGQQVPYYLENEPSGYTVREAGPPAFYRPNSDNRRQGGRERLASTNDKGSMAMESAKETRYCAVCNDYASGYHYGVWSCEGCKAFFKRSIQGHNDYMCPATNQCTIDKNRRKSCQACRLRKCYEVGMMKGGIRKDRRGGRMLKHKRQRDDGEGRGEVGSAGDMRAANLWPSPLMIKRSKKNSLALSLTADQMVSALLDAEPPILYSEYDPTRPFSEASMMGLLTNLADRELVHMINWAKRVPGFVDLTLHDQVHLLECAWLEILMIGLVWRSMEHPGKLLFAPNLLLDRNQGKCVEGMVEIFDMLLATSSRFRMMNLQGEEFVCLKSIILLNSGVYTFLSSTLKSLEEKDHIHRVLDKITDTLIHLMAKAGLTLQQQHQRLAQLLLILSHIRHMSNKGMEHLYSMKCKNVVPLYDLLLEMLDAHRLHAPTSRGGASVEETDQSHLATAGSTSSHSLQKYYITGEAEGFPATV
# [17] = qHTS assay for identifying genotoxic compounds that show differential cytotoxicity against isogenic chicken DT40 cell lines with known DNA damage response pathways - Rev3 mutant cell line (AID 743014); conditions: chicken DT40 Rev3-/- viability, CellTiter-Glo, 40 h; activity, negative = cytotoxicity: at 68.4 µM (top of the series) unless noted; also: nearly all actives have a fitted effect of over 55% in size; also: potency is read from the fitted curve at half-maximal effect
# [18] = qHTS assay for small molecule activators of the heat shock response signaling pathway (AID 743210; active = well fitted activation curve with a large enough effect in the signal ratio in the repeat runs, with a control signal flat, not every such curve was filed as active; inconclusive = weak or mixed curves; the % refers to the signal ratio); conditions: HeLa HSE-bla reporter, beta-lactamase ratio, 5 h; activation: at 62.6 µM (top of the series) unless noted
# Outline: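 HSE-bla HeLa cells (beta-lactamase reporter under heat shock response elements) were exposed to compounds for 5 h at 37 C, then loaded with LiveBLAzer B/G FRET substrate for 2.5 h at room temperature before fluorescence reading.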
# [19] = A CellTox Green Cytotoxicity Assay to monitor cytotoxicity in HepG2 cells - 40 hour (AID 1224879); also: potency is read from the fitted curve at half-maximal effect; nearly all actives have a fitted effect of over 40% in size
# Outline: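 Nonlytic assay: viable cells exclude the dye, so fluorescence scales with cell death. HepG2 at 600 cells/well, compounds added after 5 h, signal read across 40 h.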
# [20] = qHTS assay for identifying genotoxic compounds that show differential cytotoxicity against isogenic chicken DT40 cell lines with known DNA damage response pathways - Rad54/Ku70 mutant cell line (AID 743015); conditions: DT40 Rad54/Ku70 mutant viability, CellTiter-Glo, 40 h; activity change, negative = cytotoxicity: at 66.8 µM (top of the series) unless noted; also: nearly all actives have a fitted effect of over 60% in size
# [21] = viability change, negative = cytotoxic: at 62.6 µM (top of the series) unless noted
# Tags tell the direction and shape of the fitted curve.
compound,measurement,setting,value
CS(C)(=O)=O,Potency,[1],"inconclusive: 21.9 µM [activator, single point]"
same,Potency,[2],"inconclusive: 21.9 µM [activator, single point]"
same,Potency,[3],inactive
same,Potency,[4],inactive
same,"activity change, negative = inhibition",[5],inconclusive: 5.78%
COC(=O)CCCC(=O)O,Potency,[6],inactive
same,Potency,[7]; [21],inactive
same,Potency,[8],inactive
same,Potency,[1],inactive
same,Potency,[9],inactive
CC(C)(C)c1cc(CCC(=O)OCCSCCOC(=O)CCc2cc(C(C)(C)C)c(O)c(C(C)(C)C)c2)cc(C(C)(C)C)c1O,Potency,[10],inactive
same,Potency,[8],inactive
same,Potency,[11],inactive
CCc1cccc(CC)c1NC(=O)C(=O)O,Potency,[11],"inconclusive: 3.86 µM [rising, partial curve, poor fit]"
CCCCCCCCOCCC#N,Potency,[12],inactive
same,Potency,[13],inactive
same,Potency,[14],inactive
same,Potency,[3],inactive
same,Potency,[4],inactive
same,"activity, negative = inhibition",[15],inconclusive: 2.85%
same,Potency,[9],inactive
O=C(O)CCC(=O)O,Potency,[16],"inconclusive: 77 µM [activator, partial curve, poor fit]"
same,"viability change, negative = cytotoxic",[7]; at 62.6 µM (top of the series),inactive: 1.97%
same,"viability change, negative = cytotoxic",[7]; at 81.1 µM (top of the series),inactive: -7.63%
same,"viability change, negative = cytotoxic",[7]; [21],inconclusive: 0.0741%
Nc1nc(=O)n([C@@H]2O[C@H](CO)[C@@H](O)[C@@H]2F)cc1I,Potency,[6],inactive
same,activation,[12],inconclusive: 6.45%
same,"activity, negative = inhibition",[15],inconclusive: 18.2% [at 42.5 µM]
Nc1cc(Cl)cc(S(=O)(=O)O)c1O,Potency,[17],inactive
same,Potency,[16],inactive
same,Potency,[18],inactive
same,Potency,[7]; [21],inactive
same,activation,[12],inconclusive: 0.0889% [at 81.1 µM]
same,"viability change, negative = cytotoxic",[13],inconclusive: -1.89% [cytotoxic] [at 78.8 µM]
same,Potency,[1],"inconclusive: 56.5 µM [activator, single point]"
same,Potency,[2],"inconclusive: 50.4 µM [activator, partial curve, poor fit]"
Cc1nc(C2CCCCC2)c(-c2ccc(S(N)(=O)=O)c(F)c2)o1,Potency,[12],inactive
same,Potency,[10],"inconclusive: 26.8 µM [cytotoxic, single point]"
same,Potency,[8],"inconclusive: 30.1 µM [cytotoxic, single point]"
same,Potency,[14],"inconclusive: 26.8 µM [cytotoxic, single point]"
same,Potency,[9],inactive
same,Potency,[5],active: 26.6 µM
CC(C)(C)c1nnc(NS(=O)(=O)c2ccccc2)s1,Potency,[7]; [21],inactive
same,Potency,[8],inactive
same,Potency,[3],inactive
Cc1ccc(C(=O)c2ccc(CC(=O)O)n2C)cc1,activation,[12],inconclusive: -5.16%
same,Potency,[19],"inconclusive: 26.8 µM [activator, single point]"
same,Potency,[5],"inconclusive: 29.8 µM [rising, single point]"
CN(C)c1cc(NC(=O)CNC(C)(C)C)c(O)c2c1C[C@H]1C[C@H]3[C@H](N(C)C)C(=O)C(C(N)=O)=C(O)[C@@]3(O)C(=O)C1=C2O,Potency,[17],"inconclusive: 33.5 µM [cytotoxic, single point]"
same,Potency,[12],inactive
same,Potency,[4],inactive
same,Potency,[15],inactive
same,Potency,[9],"inconclusive: 0.473 µM [falling, full curve, poor fit]"
C1CCSC1,Potency,[10],"inconclusive: 61.6 µM [cytotoxic, single point]"
same,Potency,[8],"inconclusive: 61.6 µM [cytotoxic, single point]"
same,Potency,[14],"inconclusive: 54.9 µM [cytotoxic, single point]"
same,Potency,[5],inactive
CNC[C@H](O)c1cccc(O)c1,Potency,[8],inactive
same,Potency,[1],inactive
same,Potency,[4],inactive
CCC(C)(Oc1ccc(C2(c3ccc(OC(C)(CC)C(=O)O)cc3)CCCCC2)cc1)C(=O)O (configuration not stated),Potency,[17],inactive
same,Potency,[20],inactive
same,Potency,[7]; [21],inactive
C[N+]1([O-])CCOCC1,Potency,[3],inactive
same,Potency,[11],inactive
c1ccc2cnccc2c1,"ratio activity, negative = inhibition",[6],inconclusive: 13.3%
same,Potency,[1],inactive
same,"activity change, negative = inhibition",[5],inconclusive: -0.815%
CCC(=O)CC(C)CC (configuration not stated),activity change,[2],"inactive: 10.7% [at 0.29 µM, hits give high values]"
C[C@@H]1CCC[C@H](C)N1,Potency,[13],"inconclusive: 0.477 µM [cytotoxic, full curve, poor fit]"
same,Potency,[10],inactive
O=C(O)c1cc(C(=O)O)cc([N+](=O)[O-])c1,Potency,[13],inactive
same,Potency,[14],inactive
O=S(=O)(O)c1cc(O)ccc1O,Potency,[6],inactive
same,Potency,[19],"inconclusive: 21.9 µM [activator, single point]"
same,Potency,[3],inactive
same,Potency,[5],inactive
